A word on the pIC50: it is the negative decadic logarithm of the IC50, by convention in mol/L.

pIC50: −log10 of the molar value. By IC50 is meant the dose at which the fit gives 50% viability; where the fit passes the top or lowest dose, that dose stands as a limit. AUC, from the same fit, is the share of area under the viability curve across the 256-fold dose range; values near 1 show little effect. For some assays here: Where the top dose is marked as inferred, it is not printed in the source and was worked back from the curve model. For some assays here: An entry number marks a drug with two screens in the source, which often give different values.

Compound in the first test: Cc1cc(N2CCOCC2)cc2[nH]c(-c3c(NC[C@@H](O)c4cccc(Cl)c4)cc[nH]c3=O)nc12 [BMS-536924]
The test can be described thus: Viability of human cancer cell lines after 72 h of drug (GDSC screen). Conditions: top dose 5.12 µM; screen: GDSC drug entry 62. How it is done: (§1)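 Human cancer cell lines in 384-well plates, medium with 10% serum, drug for 72 h over a 256-fold dose range (nine 2-fold or five 4-fold steps up to the top dose). Adherent lines were fixed and stained with the nucleic acid dye Syto60, suspension lines read with resazurin; signal relative to control wells, capped at 0 and 100%. One two-parameter sigmoid per drug and line, fitted in a mixed model over all curves with the slope shared within a line.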
For the cell line OS-RC-2 (kidney, adherent), the AUC is 0.683 and the negative-log IC50 (pIC50) was 5.88.

Regarding RH-1 (rhabdomyosarcoma, adherent), the AUC stood at 0.978 and the pIC50 was < 5.29.

With RKO (large intestine, adherent), the AUC was 0.671 and the pIC50 is 6.04.

With RL (B-cell lymphoma, suspension), the AUC was 0.986 and the pIC50 was < 5.29.

On to “RPMI-8402 (T-cell lymphoblastic leukaemia, suspension)”, for which the AUC amounted to 0.952 and the pIC50 was < 5.29.

Take “RPMI-8866 (chronic myeloid leukaemia, suspension)”: the AUC amounted to 0.987 and the negative logarithm of the IC50 (pIC50) was < 5.29.

For the cell line RXF393 (kidney, adherent), the AUC is 0.701 and the pIC50 is 5.83.

For the cell line “SBC-1 (small cell lung carcinoma, suspension)”, the AUC came out at 0.983 and the pIC50 was < 5.29.

For the cell line SF126 (glioma, adherent), the AUC was 0.803 and the negative logarithm of the IC50 (pIC50) is 5.57.

Regarding SF268 (glioma, adherent), the AUC was determined as 0.821 and the pIC50 was 5.49.

Compound in the next test: Cc1ccc(-n2nc(C(C)(C)C)cc2NC(=O)Nc2ccc(OCCN3CCOCC3)c3ccccc23)cc1 [BIRB 0796]
The description is as above. Conditions: top dose 10 µM; top dose inferred. As for the experimental part:
as §1
With NCI-SNU-5 (stomach, suspension), the AUC came to 0.985 and the pIC50 is < 5.00.

For NCI-SNU-16 (stomach, suspension), the AUC worked out at 0.991 and the pIC50 was < 5.00.

As to NH-12 (neuroblastoma, adherent), the AUC is 0.982 and the pIC50 was < 5.00.

Take NMC-G1 (glioma, adherent): the AUC turned out to be 0.981 and the negative-log IC50 (pIC50) is < 5.00.

For the cell line NOS-1 (osteosarcoma, adherent), the AUC amounted to 0.936 and the pIC50 was < 5.00.

For “OCI-AML3 (acute myeloid leukaemia, suspension)”, the AUC came to 0.991 and the pIC50 was < 5.00.

Take “OCI-AML5 (acute myeloid leukaemia, suspension)”: the AUC was 0.985 and the pIC50 is < 5.00.

Take OCI-LY-19 (B-cell lymphoma, suspension): the AUC came out at 0.986 and the pIC50 is < 5.00.

On to OCUB-M (breast, adherent), for which the AUC is 0.989 and the pIC50 is < 5.00.

In the case of ONS-76 (medulloblastoma, adherent), the AUC was 0.946 and the pIC50 was < 5.00.

Take OS-RC-2 (kidney, adherent): the AUC is 0.922 and the pIC50 is < 5.00.

Regarding RH-1 (rhabdomyosarcoma, adherent), the AUC was found to be 0.989 and the pIC50 was < 5.00.

As for RKO (large intestine, adherent), the AUC is 0.982 and the pIC50 was < 5.00.

As to RL (B-cell lymphoma, suspension), the AUC worked out at 0.988 and the pIC50 was < 5.00.

In the case of “RPMI-8402 (T-cell lymphoblastic leukaemia, suspension)”, the AUC worked out at 0.991 and the pIC50 was < 5.00.

Turning to “RPMI-8866 (chronic myeloid leukaemia, suspension)”, the AUC is 0.988 and the pIC50 is < 5.00.

For the cell line RXF393 (kidney, adherent), the AUC was determined as 0.934 and the pIC50 was < 5.00.

For “SBC-1 (small cell lung carcinoma, suspension)”, the AUC is 0.987 and the pIC50 was < 5.00.

On to SF126 (glioma, adherent), for which the AUC stood at 0.802 and the negative logarithm of the IC50 (pIC50) was 5.28.

In the case of SF268 (glioma, adherent), the AUC came to 0.852 and the negative logarithm of the IC50 (pIC50) is 5.06.

Compound in the next test: Cc1cccc(-c2[nH]c(C(C)(C)C)nc2-c2ccc3nccnc3c2)n1 [SB-525334]
The test is described as above. Conditions: top dose 20 µM; top dose inferred. As for the experimental part: as §1
NCI-SNU-5 (stomach, suspension): the AUC was 0.989 and the pIC50 is < 4.70.

Consider NCI-SNU-16 (stomach, suspension), for which the AUC is 0.984 and the pIC50 was < 4.70.

As for NH-12 (neuroblastoma, adherent), the AUC is 0.909 and the pIC50 was < 4.70.

Take NMC-G1 (glioma, adherent): the AUC turned out to be 0.858 and the pIC50 was < 4.70.

NOS-1 (osteosarcoma, adherent): the AUC worked out at 0.543 and the negative logarithm of the IC50 (pIC50) was 5.77.

For the cell line “OCI-AML3 (acute myeloid leukaemia, suspension)”, the AUC came to 0.987 and the negative-log IC50 (pIC50) was < 4.70.

As to “OCI-AML5 (acute myeloid leukaemia, suspension)”, the AUC is 0.973 and the negative-log IC50 (pIC50) was < 4.70.

In the case of OCI-LY-19 (B-cell lymphoma, suspension), the AUC was 0.748 and the negative-log IC50 (pIC50) is 5.22.

As for OCUB-M (breast, adherent), the AUC was 0.746 and the pIC50 is 5.25.

As to ONS-76 (medulloblastoma, adherent), the AUC was determined as 0.931 and the pIC50 is < 4.70.

For the cell line OS-RC-2 (kidney, adherent), the AUC came out at 0.91 and the pIC50 is < 4.70.

Turning to RH-1 (rhabdomyosarcoma, adherent), the AUC turned out to be 0.66 and the pIC50 was 5.50.

For RKO (large intestine, adherent), the AUC amounted to 0.967 and the negative logarithm of the IC50 (pIC50) is < 4.70.

As to RL (B-cell lymphoma, suspension), the AUC is 0.906 and the pIC50 was < 4.70.

In the case of “RPMI-8402 (T-cell lymphoblastic leukaemia, suspension)”, the AUC turned out to be 0.965 and the pIC50 is < 4.70.

Regarding “RPMI-8866 (chronic myeloid leukaemia, suspension)”, the AUC was 0.828 and the pIC50 was 4.95.

Turning to RXF393 (kidney, adherent), the AUC came to 0.888 and the pIC50 is < 4.70.

Consider “SBC-1 (small cell lung carcinoma, suspension)”, for which the AUC was 0.97 and the pIC50 was < 4.70.

Turning to SF126 (glioma, adherent), the AUC was determined as 0.916 and the pIC50 is < 4.70.

Turning to SF268 (glioma, adherent), the AUC turned out to be 0.908 and the negative logarithm of the IC50 (pIC50) was < 4.70.

Compound in another test: NC(=O)c1ccc(N(C(N)=O)c2c(F)cccc2F)nc1-c1ccc(F)cc1F [VX-702]
Described as above. As to conditions: top dose 2 µM; top dose inferred. As for the experimental part:
as §1
For NCI-SNU-5 (stomach, suspension), the AUC is 0.975 and the pIC50 is < 5.70.

As to NCI-SNU-16 (stomach, suspension), the AUC is 0.987 and the pIC50 was < 5.70.

For NH-12 (neuroblastoma, adherent), the AUC was found to be 0.98 and the negative-log IC50 (pIC50) is < 5.70.

On to NMC-G1 (glioma, adherent), for which the AUC was found to be 0.969 and the pIC50 was < 5.70.

For NOS-1 (osteosarcoma, adherent), the AUC was 0.961 and the pIC50 was < 5.70.

As to “OCI-AML3 (acute myeloid leukaemia, suspension)”, the AUC was found to be 0.968 and the negative logarithm of the IC50 (pIC50) was < 5.70.

For the cell line “OCI-AML5 (acute myeloid leukaemia, suspension)”, the AUC was 0.988 and the pIC50 was < 5.70.

For the cell line OCI-LY-19 (B-cell lymphoma, suspension), the AUC is 0.987 and the negative logarithm of the IC50 (pIC50) was < 5.70.

Regarding OCUB-M (breast, adherent), the AUC was 0.99 and the negative-log IC50 (pIC50) was < 5.70.

Consider ONS-76 (medulloblastoma, adherent), for which the AUC worked out at 0.975 and the pIC50 is < 5.70.

For the cell line OS-RC-2 (kidney, adherent), the AUC was found to be 0.964 and the negative-log IC50 (pIC50) was < 5.70.

On to RH-1 (rhabdomyosarcoma, adherent), for which the AUC amounted to 0.991 and the pIC50 was < 5.70.

For RKO (large intestine, adherent), the AUC was determined as 0.985 and the pIC50 was < 5.70.

RL (B-cell lymphoma, suspension): the AUC came out at 0.99 and the pIC50 was < 5.70.

For the origin of these results see the supplement of paper PMC4967469.
